{
  "source": "paper PMC6919601",
  "about": "“Identification of Plasmodium dipeptidyl aminopeptidase allosteric inhibitors by high throughput screening” (PLoS ONE, 2019)",
  "note": "In all, about 110,000 compounds went through this assay and about 230 (0.21%) showed an effect of 50% or more. This is one part of the list.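 Also: 30 min substrate incubation versus DMSO and 10 µM JCP410 controls.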",
  "data": [
    {"target": "DPAP1 (Plasmodium falciparum, UniProt Q8IIJ9)", "sequence (Q8IIJ9 whole entry, looked up)": "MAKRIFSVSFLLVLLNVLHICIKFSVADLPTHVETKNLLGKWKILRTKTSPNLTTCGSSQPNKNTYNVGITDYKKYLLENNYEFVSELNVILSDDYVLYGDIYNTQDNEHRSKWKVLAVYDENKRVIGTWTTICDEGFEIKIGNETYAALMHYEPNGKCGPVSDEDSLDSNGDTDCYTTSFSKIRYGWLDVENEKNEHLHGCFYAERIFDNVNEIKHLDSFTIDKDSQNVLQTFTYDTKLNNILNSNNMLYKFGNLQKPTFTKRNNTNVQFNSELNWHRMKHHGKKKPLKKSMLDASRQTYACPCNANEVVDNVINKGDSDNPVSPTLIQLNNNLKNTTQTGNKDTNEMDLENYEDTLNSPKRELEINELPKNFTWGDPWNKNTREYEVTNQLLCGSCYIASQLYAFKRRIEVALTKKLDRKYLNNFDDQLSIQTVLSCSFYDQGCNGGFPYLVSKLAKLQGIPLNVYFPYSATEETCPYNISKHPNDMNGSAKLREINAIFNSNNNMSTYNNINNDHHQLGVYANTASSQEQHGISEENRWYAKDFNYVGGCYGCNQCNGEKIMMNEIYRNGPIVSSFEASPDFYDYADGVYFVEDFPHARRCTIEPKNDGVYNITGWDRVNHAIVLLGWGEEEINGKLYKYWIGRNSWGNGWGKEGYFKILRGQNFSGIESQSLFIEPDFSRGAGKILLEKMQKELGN", "assay": "primary screen, percent inhibition; read by cleavage of a fluorogenic dipeptide substrate; higher = more effect of the substance", "design": "species or system P. falciparum D10 trophozoite lysates; single well", "units": {"% Inhibition @ 10 uM": "%"}, "values": [
      {"smiles": "CCOC(=O)C1=CN(C(C)C)C=C(C(=O)OCC)C1c1cc(Br)c(OC)c(OC)c1", "% Inhibition @ 10 uM": -8.88},
      {"smiles": "Cc1cc(N2C(=O)CC(N3CCC(c4nc5ccccc5s4)CC3)C2=O)no1", "note": "(centres unmarked)", "% Inhibition @ 10 uM": -1.24},
      {"smiles": "NC(=O)C1CCN(c2c(S(=O)(=O)c3ccccc3)cnc3cc4c(cc23)OCCO4)CC1", "% Inhibition @ 10 uM": -0.883},
      {"smiles": "COc1ccc(C2OC(c3ccc(Cl)cc3)=NN2C(C)=O)cc1", "note": "(centres unmarked)", "% Inhibition @ 10 uM": -3.74},
      {"smiles": "COC(C(=O)Nc1ccc(Cl)cn1)c1ccccc1", "note": "(centres unmarked)", "% Inhibition @ 10 uM": 3.81},
      {"smiles": "c1ccc(Nc2nc(N3CCCCC3)nc(N3CCCCC3)n2)cc1", "% Inhibition @ 10 uM": 7.96},
      {"smiles": "CC(C)C[C@H](NC(=O)c1cccc(B(O)O)c1)C(=O)NCC#N", "% Inhibition @ 10 uM": -5.2},
      {"smiles": "COc1c(Cl)cc(Cl)cc1C(=O)Nc1ccc(C)cc1", "% Inhibition @ 10 uM": 0.716},
      {"smiles": "CC(C)Oc1ccc(NCC(=O)Nc2ccc(F)cc2)cc1", "% Inhibition @ 10 uM": 0.964},
      {"smiles": "COc1ccc(C(=O)N/C(=C\\c2ccc3c(c2)OCO3)C(=O)NCc2ccco2)cc1", "% Inhibition @ 10 uM": -4.49},
      {"smiles": "O=C(Nc1ccc(I)cc1)c1cccc(F)c1", "% Inhibition @ 10 uM": 3},
      {"smiles": "CCC(Oc1ccccc1)C(=O)Nc1cc(OC)c(Cl)cc1OC", "note": "(centres unmarked)", "% Inhibition @ 10 uM": -4.59},
      {"smiles": "O=C(CCN1C(=O)c2ccccc2Sc2ncccc21)NCCc1ccc(Cl)cc1", "% Inhibition @ 10 uM": 2.06},
      {"smiles": "O=C(CCc1nc2ncccc2c(=O)n1Cc1ccc(F)cc1)N1CCc2ccccc2C1", "% Inhibition @ 10 uM": 0.953},
      {"smiles": "O=C(Cn1c2c(c(-c3ccccc3Cl)cc1=O)CCC2)NCc1ccc2c(c1)OCO2", "% Inhibition @ 10 uM": 0.718},
      {"smiles": "CCc1ccc(CNC(=O)c2cc(O)nc3ccccc23)cc1", "% Inhibition @ 10 uM": -4.97},
      {"smiles": "Cc1nnc(SCC(=O)NCCCc2ccccc2)c2nn(-c3ccccc3)c(C)c12", "% Inhibition @ 10 uM": -3.24},
      {"smiles": "CCc1c(O)n(-c2ccccc2)c(SC)nc1=O", "% Inhibition @ 10 uM": -0.292},
      {"smiles": "O=C(CCN1C(=O)c2ccccc2C1=O)N1CCN(Cc2ccccc2)CC1", "% Inhibition @ 10 uM": -3.9},
      {"smiles": "O=C(Nc1sc2c(c1C(=O)NCC1CCCO1)CCCC2)c1cccs1", "note": "(centres unmarked)", "% Inhibition @ 10 uM": 2.69},
      {"smiles": "COCCN1C(=O)c2[nH]nc(-c3ccccc3O)c2C1c1ccccc1", "note": "(centres unmarked)", "% Inhibition @ 10 uM": -1.35},
      {"smiles": "CC1CCCCN1C(=O)CSc1nc2cccnc2[nH]1", "note": "(centres unmarked)", "% Inhibition @ 10 uM": 1.63},
      {"smiles": "NC(=O)c1c(NC(=O)COc2ccc(Cl)cc2Br)sc2c1CCCC2", "% Inhibition @ 10 uM": 1.08},
      {"smiles": "COc1ccc(C)cc1-n1c(C)cc(/C=C2/C(=N)N3C=CSC3=NC2=O)c1C", "% Inhibition @ 10 uM": -4.84},
      {"smiles": "COc1ccc(/C=C/C(=O)CC(=O)c2ccccc2O)cc1", "% Inhibition @ 10 uM": 3.16},
      {"smiles": "Cc1ccc(-c2cc(C(F)F)nc(NCc3ccccc3)n2)cc1", "% Inhibition @ 10 uM": 1.85},
      {"smiles": "O=C1NC(=S)N/C1=C/c1ccc2c(c1)OCO2", "% Inhibition @ 10 uM": 4.07},
      {"smiles": "COc1cc(C2C3=C(O)CCCC3=NC(C)=C2C(=O)OC(C)C)cc(Br)c1O", "note": "(centres unmarked)", "% Inhibition @ 10 uM": 2.45},
      {"smiles": "COc1ccc(Cl)cc1-n1c(C)cc(/C=C2/C(=N)N3OC(C)=CC3=NC2=O)c1C", "% Inhibition @ 10 uM": 0.317},
      {"smiles": "Cc1cc(C)cc(NC(=O)c2cc(C)nn2C)c1", "% Inhibition @ 10 uM": -13.3},
      {"smiles": "O=C(NC1CCCCC1)C1CC1c1ccccc1", "note": "(centres unmarked)", "% Inhibition @ 10 uM": -7.34},
      {"smiles": "O=C(O)CCC(=O)Nc1ccccc1C(=O)Nc1cccc(Cl)c1", "% Inhibition @ 10 uM": 0.795},
      {"smiles": "Cc1ccsc1CN1CCN(C)CC1", "% Inhibition @ 10 uM": -3.71},
      {"smiles": "COc1ccc(-c2noc(CC(=O)N3CCN(C4CCCCC4)CC3)n2)cc1", "% Inhibition @ 10 uM": 4.84},
      {"smiles": "O=C(Cn1cnc2c(nnn2Cc2ccc(F)cc2)c1=O)N1CCOCC1", "% Inhibition @ 10 uM": -2.16},
      {"smiles": "O=C(O)CC(NC(=O)COc1ccccc1)c1ccc(Cl)cc1", "note": "(centres unmarked)", "% Inhibition @ 10 uM": 1.03},
      {"smiles": "CC1CCCN(C(=O)C2CCN(c3ncnc4c3nc3n4CCCCC3)CC2)C1", "note": "(centres unmarked)", "% Inhibition @ 10 uM": 3.5},
      {"smiles": "Cc1ccc(N2C(=O)c3ccccc3NC2c2ccc3c(c2)OCO3)cc1", "note": "(centres unmarked)", "% Inhibition @ 10 uM": 3.67},
      {"smiles": "CC(C)C[C@H](NC(=O)OCc1ccc(CO)cc1)C(=O)NCC#N", "% Inhibition @ 10 uM": 1.71},
      {"smiles": "COC(=O)Nc1ccc(NC(C)=O)cc1", "% Inhibition @ 10 uM": 27.3},
      {"smiles": "Cc1nc(SCC(=O)N2CCC(C)CC2)c(C#N)c(C)c1C", "% Inhibition @ 10 uM": -8.98},
      {"smiles": "O=C(Nc1cccc2ccccc12)OC1CCS(=O)(=O)C1", "note": "(centres unmarked)", "% Inhibition @ 10 uM": -1.69},
      {"smiles": "CC1=NN(C(N)=S)C(O)(c2ccccc2)C1", "note": "(centres unmarked)", "% Inhibition @ 10 uM": -1.59},
      {"smiles": "COc1cc(OC)cc(-c2nc3n(n2)C(c2cc(OC)ccc2OC)C(C(N)=O)=C(C)N3)c1", "note": "(centres unmarked)", "% Inhibition @ 10 uM": -1.47},
      {"smiles": "COc1ccccc1C(=O)Nc1ccc(F)cc1", "% Inhibition @ 10 uM": 3.53},
      {"smiles": "CCOCCCN(Cc1ccco1)C(=O)c1cc2c(s1)-c1ccccc1OC2", "% Inhibition @ 10 uM": -10.5},
      {"smiles": "O=C(CCSCCC(=O)Nc1cccc(F)c1)Nc1cccc(F)c1", "% Inhibition @ 10 uM": 0.331},
      {"smiles": "Cc1cc(O)n2nc(NC(=O)c3cccnc3)nc2n1", "% Inhibition @ 10 uM": -1.31},
      {"smiles": "COCCNC(=O)c1ccc(-n2c(-c3ccccc3)nc3cccnc32)cc1", "% Inhibition @ 10 uM": 1.14},
      {"smiles": "COc1ccc(C(=O)Nc2cc(Cl)c(O)c(Cl)c2)cc1OC", "% Inhibition @ 10 uM": -0.884},
      {"smiles": "N#Cc1nc(-c2ccccc2)oc1NCC1CCCO1", "note": "(centres unmarked)", "% Inhibition @ 10 uM": 0.487},
      {"smiles": "CCCCOC(=O)c1ccc(NC(=O)c2ccc(Cl)cc2Cl)cc1", "% Inhibition @ 10 uM": 1.48},
      {"smiles": "O=C1CCN(S(=O)(=O)c2ccccc2)c2c1ccc1ccccc21", "% Inhibition @ 10 uM": -1.38},
      {"smiles": "O=C(c1cccc2c1C(=O)N(Cc1c(F)cccc1Cl)C2)N1CCOCC1", "% Inhibition @ 10 uM": 0.895},
      {"smiles": "COc1ccc(C(=O)Nc2nccs2)c(OC)c1", "% Inhibition @ 10 uM": -3.35},
      {"smiles": "O=C(NC1CCCCC1)C1CC(=O)N(c2ccccc2)C1", "note": "(centres unmarked)", "% Inhibition @ 10 uM": 0.983},
      {"smiles": "O=C1N=C(N2CCOCC2)S/C1=C\\c1cn(-c2ccccc2)nc1-c1cc2ccccc2o1", "% Inhibition @ 10 uM": 3.87},
      {"smiles": "CCc1ccc(-c2nc(CSCC(=O)NCCc3ccccc3)c(C)o2)cc1", "% Inhibition @ 10 uM": 2.37},
      {"smiles": "COc1ccc(OC)c(NC(=O)CN(c2ccccc2)S(=O)(=O)c2ccccc2)c1", "% Inhibition @ 10 uM": 6.79},
      {"smiles": "CN(Cc1ccccc1)C(=O)Cn1c(=O)c2cccn2c2cccnc21", "% Inhibition @ 10 uM": 5.68},
      {"smiles": "COc1ccc(-c2cc(C(F)F)n3ncc(C(=O)N4CCc5ccccc5C4)c3n2)cc1", "% Inhibition @ 10 uM": -3.05},
      {"smiles": "CC(C)CC(=O)NS(=O)(=O)c1ccc(NC(=O)C2CCCCC2)cc1", "% Inhibition @ 10 uM": 2.02},
      {"smiles": "COc1ccc(Nc2ccccc2)c(C)c1", "% Inhibition @ 10 uM": 1.38},
      {"smiles": "COc1ccc(C(=O)O)cc1-c1ccc(C(=O)N[C@@H](CC(C)C)C(=O)NCC#N)cc1", "% Inhibition @ 10 uM": -1.82},
      {"smiles": "c1ccc(CNc2ccc(CNc3nc[nH]n3)cc2)cc1", "% Inhibition @ 10 uM": 1.84}
    ]}
  ]
}
